Assay results published in paper PMC5013049.
No constants are given. Whether binding was seen depends on the method and setting. Some entries that bind do so weakly or less than the wild type.

Sequences of proteins named here, by UniProt entry; tags and fusion partners are left off.
UniProt Q1EH97: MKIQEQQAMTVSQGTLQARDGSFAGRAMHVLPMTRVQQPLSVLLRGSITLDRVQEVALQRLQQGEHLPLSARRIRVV
UniProt Q699Q6: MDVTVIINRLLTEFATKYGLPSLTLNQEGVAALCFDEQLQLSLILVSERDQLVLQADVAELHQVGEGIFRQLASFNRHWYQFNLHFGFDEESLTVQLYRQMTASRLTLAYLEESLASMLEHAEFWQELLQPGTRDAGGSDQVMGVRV

What was measured:
[1] = target: ExsE (BACTH fusion) (Aeromonas hydrophila) (UniProt Q1EH97); experiment: two-hybrid; BACTH (Euromedex kit): T25 and T18 fusions co-transformed into E. coli BTH101, MacConkey/maltose agar with 0.5 mM IPTG, 2 nights at 30°C; pink/red colonies positive, white negative; each exs gene in all four vectors; three times for each combination
[2] = target: ExsD (BACTH fusion) (Aeromonas hydrophila) (UniProt Q699Q3); experiment: as above
[3] = target: MBP-ExsE (Aeromonas hydrophila) (UniProt Q1EH97); experiment: far-Western, overlay or dot blot; in reverse: MBP-fused Exs proteins blotted on nitrocellulose, probed with HisExsD; detected by the tag of the probe; both purified
[4] = target: HisExsE (Aeromonas hydrophila) (UniProt Q1EH97); experiment: far-Western, overlay or dot blot; purified His-tagged Exs proteins separated by SDS-PAGE and blotted on nitrocellulose; probed 1 h with an MBP-fused Exs protein or MBP5; detected with anti-MBP; PBST washes; both purified
[5] = target: HisExsC (Aeromonas hydrophila) (UniProt Q699Q6); experiment: as above

Substance	binding [1]	binding [4]	further results
ExsC (BACTH fusion) (from UniProt Q699Q6 1-147)	binds		
ExsD (BACTH fusion) (from UniProt Q699Q3 1-271)			binding [2]: no binding
ExsE (BACTH fusion) (from UniProt Q1EH97 1-77)	binds weakly		
HisExsD (from UniProt Q699Q3 1-271)			binding [3]: no binding
MBP-ExsC (from UniProt Q699Q6 1-147)		binds	
MBP-ExsE (from UniProt Q1EH97 1-77)		binds	binding [5]: binds
